Experimental data taken from PubChem BioAssay AID1458 (National Center for Advancing Translational Sciences (NCATS), 2008).
The whole screen tested about 210,000 compounds, of which about 5,900 (2.8%) were called active. The shares of active, inactive and inconclusive entries below differ from those in the screen. Calls come from the whole dose curve; as a rule, active = well fitted activation curve with a large enough effect; inconclusive = small, poorly fitted or top-dose-only effect; inactive = no such curve, though single readings can be large or run the other way. Where the call is inconclusive, the potency comes from a doubtful curve fit.

Test: qHTS Assay for Enhancers of SMN2 Splice Variant Expression; note: nearly all actives have a fitted effect of over 55% in size
Settings: HEK293 SMN2-luciferase splicing reporter, luminescence, 30-36 h; series mostly up to 46.1 µM
In short: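 HEK293 cells carry an SMN2 […]–luciferase reporter in which exon 7 inclusion puts luciferase in frame. Cells were plated 10-12 h before compound addition, then incubated 30-36 h at 37C. ONE-Glo luminescence was read; sodium butyrate at 4.5 mM final served as control.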
Potency is the fitted concentration of half-maximal effect; tags give direction and shape of the fitted curve.

Which Potency does the source give for `O=C(Nc1ccccc1)N1CCOCC1` here?
The Potency was “inactive”.

With `CC(=O)Cc1nsc(Nc2ccccc2)n1` as the compound, how does the Potency read?
Its Potency is “inactive”.

For `Cn1c(=O)c2sccc2n2c(CCCC(=O)Nc3ccc(F)c(F)c3)nnc12`, which Potency is on record?
The Potency was “inactive”.

With `O=c1c2ccccc2nc(CSc2ncnc3nc[nH]c23)n1-c1cccc(C(F)(F)F)c1` as the compound, how does the Potency read?
Its Potency is inconclusive: 3.55 µM [activator, single point].

With `CC1=C(C(=O)Nc2ccccc2)C(c2ccncc2)n2nc(SCc3ccccc3)nc2N1` (stereo unspecified) as the compound, how does the Potency read?
The Potency was “inactive”.

Which Potency does the source give for `COc1ccc(O)c(C(=O)CC(=O)c2ccc(F)cc2)c1` here?
The Potency was active: 2.24 µM.

Which Potency does the source give for `O=C(c1ccco1)c1nc2c(n1O)CCCCC2` here?
Its Potency is inconclusive: 3.16 µM [activator, single point].

For `COc1ccc(-c2nc3ccccc3s2)cc1NC(=O)c1ccccc1OC`, which Potency is on record?
Its Potency is inconclusive: 11.2 µM [activator, partial curve].

With `N#Cc1ccccc1NC(=O)Nc1cccs1` as the compound, how does the Potency read?
Its Potency is inconclusive: 4.47 µM [activator, single point].

With `COc1cc(S(=O)(=O)Nc2ccccc2C)ccc1NC(=O)c1ccncc1` as the compound, how does the Potency read?
The Potency was inconclusive: 35.5 µM [activator, single point].

Which Potency does the source give for `Cc1csc(SCC(=O)Nc2c(C)n(C)n(-c3ccccc3)c2=O)n1` here?
Its Potency is inconclusive: 2.51 µM [activator, partial curve, poor fit].

Which Potency does the source give for `Cn1nc(-c2ccccc2F)c2cc(C(=O)N3CCN(c4ccccc4F)CC3)sc21` here?
Its Potency is “inactive”.

Which Potency does the source give for `Cc1ccc(OCC(=O)N2CCN(C(=O)CCC3CCCC3)CC2)cc1` here?
The Potency was inconclusive: 0.501 µM [activator, full curve].

With `CCCCc1ccc(NC(=O)C2CCCO2)cc1` (stereo unspecified) as the compound, how does the Potency read?
Its Potency is active: 10 µM.

Which Potency does the source give for `COc1cc2c(cc1NC(=O)COC(=O)[C@@H](NS(=O)(=O)c1ccccc1)C(C)C)oc1ccccc12` here?
Its Potency is inconclusive: 14.1 µM [activator, partial curve].

Which Potency does the source give for `C/C(=N\NC(=O)c1csc(C)c1C)c1ccc(C)s1` here?
Its Potency is inconclusive: 22.4 µM [activator, single point].

With `Nc1nc(CSc2ncccn2)nc(Nc2ccccc2)n1` as the compound, how does the Potency read?
The Potency was active: 14.1 µM.

For `c1ccc(OCc2cc(-c3ccccc3)no2)cc1`, which Potency is on record?
Its Potency is inconclusive: 35.5 µM [activator, single point].

Which Potency does the source give for `O=C(NCc1ccco1)c1sc2ccccc2c1Cl` here?
The Potency was inconclusive: 20 µM [activator, partial curve, poor fit].

For `Cc1ccc(N2C(=O)C(CC(=O)Nc3ccc(F)cc3)N(Cc3ccc4c(c3)OCO4)C2=O)cc1` (stereo unspecified), which Potency is on record?
The Potency was inconclusive: 12.6 µM [activator, partial curve].

With `Cc1ccc2cccc(S(=O)(=O)N3CCN(c4cccc(Cl)c4)CC3)c2n1` as the compound, how does the Potency read?
The Potency was inconclusive: 0.355 µM [activator, partial curve, poor fit].
